Assay results reported in the supplement of paper PMC9334596.
Values joined by “and” are separate entries in the source; they are usually repeats but may differ in a detail not shown here. Identical values can stand only once. Over roughly 5,300 compounds, “PER2::LUC luminescence relative to vehicle control” has its median near 0.96; the highest 2% begin near 1.3. Some of the results follow.

Test system: mPer2Luc MEF
Assay: PER2::LUC luminescence relative to vehicle control (fold of vehicle); higher = higher PER2::LUC reporter signal
Settings: 10 µM
In short: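 Mouse embryonic fibroblasts carrying the mPer2Luc reporter were seeded at ~3000 cells per well in 384-well plates, 48 h before compounds from commercial libraries were added at 10 μM. Cells were grown in DMEM with 10% FBS at 37 °C and 5% CO2. Luminescence was read with the ONE-Glo luciferase assay system 24 h and 30 h after treatment, followed by an alamarBlue viability assay. The value is PER2::LUC luminescence as fold of vehicle control.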

Compound | PER2::LUC luminescence (time after treatment 24 h) | PER2::LUC luminescence (time after treatment 30 h)
CN1C(=O)CC(C)(c2ccccc2)C1=O (centres undefined) | 1.16 | 0.963
CNC[C@H](O)c1cccc(O)c1 | 1.08 | 1.03
N[C@@H]1CN(c2c(F)cc3c(=O)c(C(=O)O)cn([C@@H]4C[C@@H]4F)c3c2Cl)CC12CC2 | 0.976 and 1.07 | 0.96 and 1.12
CC(=O)NNC(=O)N1Cc2ccccc2Oc2ccc(Cl)cc21 | 0.984 | 0.784
CC[C@H](CC[C@@H](C)[C@H]1CC[C@H]2[C@@H]3CC=C4C[C@@H](OC(C)=O)CC[C@]4(C)[C@H]3CC[C@]12C)C(C)C | 1.04 | 1.02
C[C@]12CC[C@@H](O)C[C@H]1CCc1ccccc12 | 1.02 | 1.05
CCOC(=O)[C@H](CCc1ccccc1)N[C@@H](C)C(=O)N1[C@H](C(=O)O)C[C@H]2CCCC[C@@H]21 | 0.86 | 0.871
O=C(O[C@@H]1Cc2c(O)cc(O)cc2O[C@@H]1c1cc(O)c(O)c(O)c1)c1cc(O)c(O)c(O)c1 | 1.05 and 0.765 and 0.506 | 0.993 and 0.606 and 0.619
CC(C)(CO)[C@@H](O)C(=O)NCCCO | 1.06 | 1.07
COC(=O)c1ccc2c(c1)NC(=O)/C2=C(\Nc1ccc(N(C)C(=O)CN2CCN(C)CC2)cc1)c1ccccc1 | 0.601 | 0.442
CCOc1ccc(C(Nc2ccccn2)c2ccc3ccc(C)nc3c2O)cc1C (centres undefined) | 1.13 | 1.13
N#C[C@@H]1CCCN1C(=O)CNC12CC3CC(CC(O)(C3)C1)C2 | 0.9 | 0.842
CC(C(=O)O)[C@H]1CCC2C3CC=C4C[C@@H](O)CC[C@]4(C)C3CC[C@@]21C (some centres undefined) | 1.07 | 1.11
COc1ccc(/C=C\c2cc(OC)c(OC)c(OC)c2)cc1OP(=O)(O)O | 0.41 | 0.469
CC(C)(O/N=C(\C(=O)N[C@@H]1C(=O)N2C(C(=O)[O-])=C(C[n+]3ccccc3)CS[C@H]12)c1csc(N)n1)C(=O)O | 1 | 0.713
C=C1/C(=C\C=C2/CCC[C@]3(C)[C@@H]([C@H](C)CCCC(C)(C)O)CC[C@@H]23)C[C@@H](O)C[C@@H]1O | 0.887 and 1.18 | 0.86 and 1.07
C[C@@H](O)[C@H](N)C(=O)O | 1.05 | 1.06
C#CCN(Cc1cc2c(=O)n(C)c(CN3CCN(C)CC3)nc2cc1Cl)c1ccc(C(=O)NCc2cccnc2)cc1 | 0.621 | 0.565
Cc1ccc(/C(=C\CN2CCCC2)c2ccccn2)cc1 | 0.723 | 1.09
O=c1onc2n1-c1cc(Br)ccc1OC2 | 0.823 | 0.963
CCOC(=O)NCCCC(=O)NCCc1ccccc1 | 1.03 | 1.04

Compound | PER2::LUC luminescence (time after treatment 24 h) | PER2::LUC luminescence (time after treatment 30 h)
COC(=O)c1ccc2c(c1)[nH]c1ncnc(NCCCN3CCCCC3)c12 | 0.888 | 0.899
C[C@H]1[C@H](NC(=O)/C(=N\OC(C)(C)C(=O)O)c2csc(N)n2)C(=O)N1S(=O)(=O)O | 1.07 | 0.993
CC1=C(/C=C/C(C)=C/C=C/C(C)=C/C(=O)O)C(C)(C)CCC1O (centres undefined) | 0.928 | 1.06
CC(C)=CCC/C(C)=C/CNCCNC1C2CC3CC(C2)CC1C3 (centres undefined) | 0.743 | 0.748
CNCCC=C1c2ccccc2CCc2ccccc21 | 0.572 | 0.594
COc1cc(CNC(=O)CCCC/C=C\C(C)C)ccc1O | 1.1 | 1.03
OC[C@H]1O[C@@H](OCCc2ccc(O)cc2)[C@H](O)[C@@H](O)[C@@H]1O | 1.01 | 0.94
FC(F)(F)c1ccc(Nc2nc(-c3c(C(F)(F)F)nc4ccccn34)cs2)cc1 | 0.269 | 0.305
Cc1ccc2c(c1)CC[C@H]1CC(=O)CC[C@]21C | 0.91 | 0.932
C=CCN1CCc2c(cc(O)c(O)c2Cl)C(c2ccccc2)C1 (racemic) | 0.968 and 0.798 | 0.931 and 0.743
CCc1c2c(nc3ccc(OC(=O)N4CCC(N5CCCCC5)CC4)cc13)-c1cc3c(c(=O)n1C2)COC(=O)[C@]3(O)CC | 1.03 and 0.886 | 0.881 and 0.909
CC(=O)Nc1c(I)c(NC(C)=O)c(I)c(C(=O)O)c1I | 1.05 and 1.19 | 1 and 1.04
CCc1cc(C(N)=S)ccn1 | 0.945 and 0.876 | 1.11 and 1.1
Cc1ccc(C(=O)Nc2ccc(S(=O)(=O)O)c3cc(S(=O)(=O)O)cc(S(=O)(=O)O)c23)cc1NC(=O)c1cccc(NC(=O)Nc2cccc(C(=O)Nc3cc(C(=O)Nc4ccc(S(=O)(=O)O)c5cc(S(=O)(=O)O)cc(S(=O)(=O)O)c45)ccc3C)c2)c1 | 0.964 and 0.875 | 0.981 and 0.97
CC(=O)Nc1ccc(S(=O)(=O)Nc2ccc([N+](=O)[O-])cc2)cc1 | 1.01 | 1.08
CN(N=O)C(=O)N[C@@H](C=O)[C@@H](O)[C@H](O)[C@H](O)CO | 0.736 | 0.663
O=C1Nc2cc(Br)ccc2/C1=C1/Nc2ccccc2/C1=N\O | 0.773 | 1.09
C[C@@H](O)[C@H]1C(=O)N2C(C(=O)O)=C(SC3CN(C4=NCCS4)C3)[C@H](C)[C@H]12 | 1.03 | 1.01
Cn1cc(C2=C(c3ccc(Cl)cc3Cl)C(=O)NC2=O)c2ccccc21 | 1.02 | 1.05
N#CC(c1ccnc(NCCc2cccnc2)n1)c1nc2ccccc2s1 (centres undefined) | 0.469 | 0.931
O=C(NC(NC(=S)Nc1ccc(F)c([N+](=O)[O-])c1)C(Cl)(Cl)Cl)C(c1ccccc1)c1ccccc1 (centres undefined) | 0.218 | 0.267

Compound | PER2::LUC luminescence (time after treatment 24 h) | PER2::LUC luminescence (time after treatment 30 h)
Nc1ncnc2c1ncn2[C@@H]1O[C@H](COP(=O)(O)CP(=O)(O)OP(=O)(O)O)[C@H](O)C1O (some centres undefined) | 0.973 | 0.905
CC(Cc1ccccc1)Nc1ncnc2c1ncn2C1OC(CO)C(O)C1O (single isomer, unassigned; (-)) | 0.925 | 0.965
O=C(N/N=C/c1ccc([N+](=O)[O-])o1)c1ccc(O)cc1 | 1.03 | 0.967
Cc1cccc(Nc2cc(Cl)nc(SCC(=O)O)n2)c1C | 1.23 | 1.01
CCOc1cc2ncc(C#N)c(Nc3ccc(OCc4ccccn4)c(Cl)c3)c2cc1NC(=O)/C=C/CN(C)C | 0.655 | 0.6
Cc1cc(NC(=O)c2cccc(NC(=O)/C=C/CN(C)C)c2)ccc1Nc1nccc(-c2cccnc2)n1 | 0.423 | 0.385
Cc1ccc(C(C)C)cc2c(C)ccc1-2 | 0.949 | 0.913
CN1CCN(C(c2ccccc2)c2ccc(Cl)cc2)CC1 (centres undefined) | 0.668 | 0.74
Cc1cn([C@@H]2C[C@@H](O)[C@H](CO)O2)c(=O)[nH]c1=O | 0.8 and 0.746 | 0.789 and 0.823
NC(=O)c1ncn([C@@H]2O[C@H](CO)[C@@H](O)[C@H]2O)c1O | 1.01 | 1.05
Cn1cnc2c(ncn2[C@@H]2O[C@H](CO)[C@@H](O)[C@H]2O)c1=N | 0.94 | 1
Cc1ccc(S(=O)(=O)NCl)cc1 | 1.03 | 0.939
Cn1c(=O)c2[nH]c(-c3ccc(S(=O)(=O)O)cc3)nc2n(C)c1=O | 1.08 | 0.98
C[C@@H]1O[C@@H]1P(=O)(O)O | 1.04 and 0.887 | 0.997 and 1.05
C[C@@H]1CN(c2c(F)c(N)c3c(=O)c(C(=O)O)cn(C4CC4)c3c2F)C[C@H](C)N1 | 1.14 | 1.03
CN=C(N)NCCC[C@H](N)C(=O)O | 0.857 | 0.894
Nc1ncnc2c1ncn2[C@@H]1O[C@H](CSCC[C@H](N)C(=O)O)[C@@H](O)[C@H]1O | 0.947 | 0.977
CCNC(=O)c1noc(-c2cc(Cl)c(O)cc2O)c1-c1ccc(OC)cc1 | 0.082 | 0.07
CCCCCCCCCCC(C)(C)C(=O)Nc1c(OC)cc(OC)cc1OC | 0.964 | 0.972
CC#CCOC(=O)c1c(C)nc2sc3c(c2c1N)CCC(O)C3 (centres undefined) | 1.03 | 0.812
CCCCC(=O)Oc1ccccc1C(=O)O | 0.993 | 1.03

Compound | PER2::LUC luminescence (time after treatment 24 h) | PER2::LUC luminescence (time after treatment 30 h)
CC[C@]12CCCN3CCc4c(n(c5ccccc45)C(=O)C1)[C@@H]32 | 0.939 and 0.983 | 1.02 and 0.866
N#CN=C(NCCCCCCOc1ccc(Cl)cc1)Nc1ccncc1 | 0.751 | 0.551
CCn1cc(C(=O)O)c(=O)c2cc(F)c(N3CCN(C)CC3)cc21 | 0.994 and 1.02 | 1.12 and 1.08
CCn1cc(C(=O)O)c(=O)c2cc(F)c(N3CCNC(C)C3)c(F)c21 (centres undefined) | 1.1 and 0.956 | 0.923 and 0.892
COc1cc(C)nc(-n2nc(C)cc2OC)n1 | 1.04 | 1.11
CS(=O)(=O)Nc1ccc([N+](=O)[O-])cc1Oc1ccccc1 | 1.14 | 0.947
C=CC(=O)Nc1cccc(Nc2nc(Nc3ccc(NC4CN(CCF)C4)cc3OC)ncc2C(F)(F)F)c1 | 0.3 | 0.262
NCC(O)c1ccc(O)c(O)c1 (centres undefined) | 1.47 | 1.55
O=c1ccc2c(OCCCCc3ccccc3)c3ccoc3cc2o1 | 0.999 | 0.987
CCC1=C[C@@H]2CN(C1)Cc1c([nH]c3ccccc13)[C@@](C(=O)OC)(c1cc3c(cc1OC)N(C)[C@H]1[C@@](O)(C(=O)OC)[C@H](OC(C)=O)[C@]4(CC)C=CCN5CC[C@]31[C@@H]54)C2 | 0.282 and 0.208 | 0.342 and 0.24
CCn1c(=O)[nH]c2ccccc21 | 0.773 | 0.839
CNC(=C[N+](=O)[O-])NCCSCc1csc(CN(C)C)n1 | 1.05 | 1.05
O=C(O)C1=CCNCC1 | 1.03 | 1.14
OCc1ccccc1 | 1.11 | 0.99
CN1CCN(C2=Nc3ccccc3Sc3ccc(Cl)cc32)CC1 | 1.06 | 1
CC1(C)[C@@H](O[C@H]2O[C@H](C(=O)O)[C@@H](O)[C@H](O)[C@H]2O[C@@H]2O[C@H](C(=O)O)[C@@H](O)[C@H](O)[C@H]2O)CC[C@]2(C)[C@H]3C(=O)C=C4[C@@H]5C[C@@](C)(C(=O)O)CC[C@]5(C)CC[C@@]4(C)[C@]3(C)CC[C@@H]12 | 0.967 and 0.965 and 0.915 | 0.967 and 0.915 and 0.909
COc1cc2nccc(Oc3ccc(NC(=O)Nc4ccc(F)cc4F)c(F)c3)c2cc1OC | 0.785 | 0.689
C[C@]12C=CC(=O)C=C1CC[C@@H]1[C@@H]2C(=O)C[C@@]2(C)[C@H]1CC[C@]2(O)C(=O)CO | 1.02 | 1.08
C[C@]12C=CC(=O)C=C1CC[C@@H]1C2=CC[C@]2(C)[C@@H](C(=O)CN3CCN(c4cc(N5CCCC5)nc(N5CCCC5)n4)CC3)CC[C@@H]12 | 0.972 | 1.02
